From paper PMC4336329 (PLoS ONE, 2015)
In all, about 310,000 compounds went through this assay and about 14,000 (4.5%) showed an effect of 50% or more. Effects have a minus sign here. The list shows a part of the results.

The compounds below were run against human ether-à-go-go-related gene (hERG) potassium channel (human, UniProt Q12809) (assay: primary screen, population patch clamp on CHO cells stably expressing hERG).
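Also: peak tail current of the secondary pulse compared with the same well before compound.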

Sequence of human ether-à-go-go-related gene (hERG) potassium channel (Q12809 whole entry, looked up): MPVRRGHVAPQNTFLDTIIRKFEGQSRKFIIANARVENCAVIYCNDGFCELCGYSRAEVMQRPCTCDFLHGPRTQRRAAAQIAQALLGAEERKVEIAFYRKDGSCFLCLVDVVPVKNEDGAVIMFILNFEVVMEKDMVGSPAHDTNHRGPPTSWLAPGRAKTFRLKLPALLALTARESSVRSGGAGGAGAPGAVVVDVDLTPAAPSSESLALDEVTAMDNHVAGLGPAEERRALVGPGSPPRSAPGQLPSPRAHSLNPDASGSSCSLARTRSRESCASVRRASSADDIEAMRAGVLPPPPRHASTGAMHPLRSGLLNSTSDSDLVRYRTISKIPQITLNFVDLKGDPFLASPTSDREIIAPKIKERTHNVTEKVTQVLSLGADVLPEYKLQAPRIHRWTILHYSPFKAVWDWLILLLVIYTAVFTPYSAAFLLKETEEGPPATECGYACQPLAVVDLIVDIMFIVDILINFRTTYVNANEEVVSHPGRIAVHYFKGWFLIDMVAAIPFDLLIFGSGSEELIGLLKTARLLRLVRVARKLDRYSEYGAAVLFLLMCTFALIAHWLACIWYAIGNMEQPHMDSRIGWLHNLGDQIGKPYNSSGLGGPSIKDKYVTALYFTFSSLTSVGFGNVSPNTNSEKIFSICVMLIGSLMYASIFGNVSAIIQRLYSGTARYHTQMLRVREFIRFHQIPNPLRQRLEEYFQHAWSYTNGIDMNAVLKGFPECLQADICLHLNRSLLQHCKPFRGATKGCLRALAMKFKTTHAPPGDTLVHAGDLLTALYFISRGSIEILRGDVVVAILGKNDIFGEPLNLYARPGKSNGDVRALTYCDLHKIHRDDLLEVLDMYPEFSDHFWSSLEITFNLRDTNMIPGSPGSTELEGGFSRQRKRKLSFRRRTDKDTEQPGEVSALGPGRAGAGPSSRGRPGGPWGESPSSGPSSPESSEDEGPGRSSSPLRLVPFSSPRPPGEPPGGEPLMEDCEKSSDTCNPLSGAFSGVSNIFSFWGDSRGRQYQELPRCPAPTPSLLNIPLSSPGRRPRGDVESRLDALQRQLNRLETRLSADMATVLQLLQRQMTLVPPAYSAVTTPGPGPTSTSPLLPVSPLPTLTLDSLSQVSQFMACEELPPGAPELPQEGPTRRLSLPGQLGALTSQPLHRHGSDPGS

SMILES | hERG current change (%, negative = inhibition) at 10uM [%]
C=CCOc1ccccc1C(=O)/C=C1/C(=O)Nc2ccccc21 | 11.7
Cc1cccc(Nc2nnc(SC/C(O)=C(\C#N)c3nc4ccccc4[nH]3)s2)c1C | 0.65
Cc1ccc(C)c(C(=O)COC(=O)c2cc(Cl)nc3ccccc23)c1 | 26.4
CCOc1ccc(S(=O)(=O)N/N=C2/CC(c3ccccc3)Oc3ccccc32)cc1 (centres unmarked) | 2.42
COc1ccc(NC(=O)c2cc(-c3ccccc3Cl)on2)cc1 | 12
CC1CCCCC1NC(=O)C(=O)NCC1CCCO1 (centres unmarked) | 4.52
O=C(Nc1ccccc1C(=O)N1CCCCC1)c1cccc(S(=O)(=O)N2CCOCC2)c1 | -19.2
COc1ccccc1OCC(=O)NCc1nc(-c2ccccc2)no1 | -5.67
Cc1cccc(N2CCC(N3CCN(C4CCCCC4)C(CCO)C3)CC2)c1C (centres unmarked) | -42.7
CCN(CC)S(=O)(=O)c1ccc(NC(=O)COc2nc3ccccc3nc2N2CCOCC2)cc1 | 2.13
Cc1occc1-c1nnc(SCC(=O)NC(C)(C)C)n1CC(C)C | 13
Cc1cc(NC(=O)c2ccccc2NS(=O)(=O)c2c(C)c(C)cc(C)c2C)no1 | 4.51
COc1ccc(OC)c(NC(=O)NNC(=O)COc2ccc([N+](=O)[O-])cc2)c1 | 9.31
COc1cc2c(cc1OC)C(c1ccc3c(c1)OCO3)CC(=O)N2 (centres unmarked) | -28.4
Cc1cccc(NC(=O)/C(C#N)=C/c2ccc(F)cc2)n1 | 30
O=C(CCS(=O)(=O)c1ccc(Br)cc1)NCCc1ccccc1 | 13.5
O=C(NNc1ncccc1-n1cccc1)c1ccc(Cl)cc1 | -15.4
Cc1nnc(NC(=O)Nc2cccc(Cl)c2)s1 | -12.6
Cc1ccc(Cl)cc1NC(=S)N1CCC(c2ccccc2)C1 (centres unmarked) | -3.76
N#Cc1ccc(CN2CCN(c3ccc(S(=O)(=O)N4CCCC4)cn3)CC2)cc1 | -5.28
COc1cccc(-c2nn(-c3ccccc3)cc2C(=O)NCC(=O)O)c1 | 17.5
COc1ccccc1N(CC(=O)NC1CCCC1)C(=O)CNC(=O)c1cccs1 | 12.7

SMILES | hERG current change (%, negative = inhibition) at 10uM [%]
CCC(NC(=O)OCc1ccccc1)C(=O)Oc1ccc2ccc(=O)oc2c1 (centres unmarked) | 15.7
O=C(/C(N=Nc1cccc([N+](=O)[O-])c1)=C(/O)c1ccc(Br)cc1)C(F)(F)F | 14.9
COCCNC(=S)N/N=C(\C)c1ccccc1F | 4.4
COc1cc(OC)cc(C(=O)Nc2ccc(NC(=O)c3ccco3)c(C)c2)c1 | -13.1
CC(=O)Nc1ccc2nc(NC(=O)COc3cccc(C)c3)sc2c1 | -3.77
COc1cccc(C2CNC3(CCCC(C)C3)c3[nH]c4ccccc4c32)c1OC.Cl (centres unmarked) | -23.6
Cn1c(SCC(=O)N/N=C/c2ccc([N+](=O)[O-])s2)nnc1-c1ccc(Cl)cc1 | -41.7
Cc1ccc(-n2nnnc2-c2cnc3cc4c(cc3c2C)OCO4)cc1 | 3.65
Cc1ccc(C)c(C2=NNC(=O)CC2)c1 | 2.5
O=C(c1cc(COc2ccc(F)cc2Cl)on1)N1CCCC(c2ccccc2)C1 (centres unmarked) | -5.56
O=C(COc1ccc(Cl)cc1)OCC(=O)N1CCCc2ccccc21 | 17.4
COc1ccc(NC(=O)COC(=O)c2ccc(S(=O)(=O)N(C)c3ccccc3OC)cc2)cc1OC | 14
COc1ccc2c(c1)-c1ccccc1S(=O)(=O)N2C | -9.76
COc1ccc(C(=O)NCC(C)CN(C)C)cc1 (centres unmarked) | -9.08
Cc1nc2c(C#N)cnn2c2c1CCN(Cc1ccccc1)N2C | -58
COc1ccccc1/C=N/NC(=O)c1cccc(NC(=O)c2ccccc2C)c1 | -4.64
CCCC(=O)c1ccc(N2CCN(C(=O)c3ccccc3Br)CC2)c(F)c1 | -23.7
Cc1onc(-c2c(F)cccc2Cl)c1C(=O)NNC(=O)C1CCN(Cc2cccc(F)c2)CC1 | -16.9
CN(C(=O)CO/N=C/c1ccc(Cl)cc1)c1ccccc1 | -44.2
CCCN1CCC(NC(=S)Nc2ccc(C(=O)OCC)cc2)CC1 | -18.2
CC(C)CC(NC(=O)C(CC(C)C)NC(=O)OC(C)(C)C)C(=O)O (centres unmarked) | 25.9
O=S(=O)(c1ccc(OCC2CO2)cc1)c1ccc(OCC2CO2)cc1 (centres unmarked) | 15.8

SMILES | hERG current change (%, negative = inhibition) at 10uM [%]
Cc1cc(C)c(S(=O)(=O)N2CCCCC2CCNC(=O)C(=O)NCc2ccco2)c(C)c1 (centres unmarked) | -6.51
COc1cccc(NC(=O)CSc2nc3n[nH]c(C)c3c(=N)n2-c2cccc(OC)c2)c1 | -8.71
CC(C)c1ccc(-c2c(C#N)c(N)nc(SCC(=O)N3CCCCC3)c2C#N)cc1 | 17.5
Cc1ccc(Cn2c(SCC(C)C)nc3c2c(=O)[nH]c(=O)n3C)cc1 | 4.21
COc1ccc2nc(SCC(=O)NC3CCCC3)c(C)cc2c1 | 4.08
O=C(O)c1ccc(S(=O)(=O)N2CCCC2)cc1 | 11.4
O=C1CCCN1CCCN1C(=O)N[C@@H](Cc2ccccc2)C1=O | 14.7
CC1=CSC2=NC(=O)/C(=C/c3cccc(OC(=O)c4ccco4)c3)C(=N)N12 | -1.35
Clc1cc(Cl)cc(CN2CCSCC2)c1 | 13.3
O.O=c1ccc2cc(OC3O[C@H](CO)[C@@H](O)[C@H](O)[C@H]3O)c(O)cc2o1 (some centres unmarked) | 9.76
CS(=O)(=O)N1CCC(C(=O)N2CCC(Cc3ccccc3)CC2)CC1 | -15.1
CC(C)C(NS(=O)(=O)c1ccc2c(c1)OCCO2)C(=O)NCCc1ccccn1 (centres unmarked) | 6.06
O=C(CC12CC3CC(CC(C3)C1)C2)NC(Cc1ccccc1)C(=O)O (centres unmarked) | 2.38
COc1ccccc1CCNC(=O)c1ccc(Br)s1 | 1.13
Cc1ccccc1OCc1nnc(SCC(=O)O)n1Cc1ccccc1 | 14.7
O=C(NCCCNC(=O)c1cc(Cl)ccc1Cl)c1ccco1 | 2.79
C/C(N)=C(/C#N)C(=O)CSc1nc2cc(Cl)ccc2s1 | -16.4
COc1ccc(CNC(=O)C(=O)N2CCC3(CC2)OCCN3S(=O)(=O)c2ccc(C)cc2)cc1 | -29.9
c1cncc(Oc2cccc(Oc3cccnc3)c2)c1 | 1.75
COc1ccc(OC)c(NC(=O)CCNS(=O)(=O)c2cccc3nonc23)c1 | 5.77
CCCCCCCCCCC[C@@H](C[C@@H]1OC(=O)[C@H]1CCCCCC)OC(=O)[C@H](CC(C)C)NC=O | -5.11
COc1ccc(C(=O)CN2C(=O)NC3(CCCc4ccccc43)C2=O)cc1 (centres unmarked) | -36.2

SMILES | hERG current change (%, negative = inhibition) at 10uM [%]
Cc1ccc(S(=O)(=O)Cn2nnnc2C(C(C)C)N2CCC(C(N)=O)CC2)cc1 (centres unmarked) | 19
COc1cc(/C=C(/C#N)c2nc3ccccc3c(=O)[nH]2)ccc1O | 13.4
O=[N+]([O-])c1[nH]cnc1/C=C/c1ccccc1 | 6.34
O=C(Cn1c(=O)cnc2ccccc21)N1CCCc2ccccc21 | 10.8
Cc1cc(C(=O)O)ccc1-n1c(C)cc(/C=C2\SC(=O)NC2=O)c1C | 12.1
COc1ccc(-c2noc(C3CCCN(C(=O)c4cccs4)C3)n2)cc1 (centres unmarked) | -21.1
COC(C(=O)NCc1ccccc1C)c1ccccc1 (centres unmarked) | 7.71
CC1CCCCC12NC(=O)N(CC(=O)N1CCN(S(=O)(=O)Cc3ccccc3)CC1)C2=O (centres unmarked) | -10.3
Cc1ccc(SCCN2CCN(Cc3ccccc3)CC2)cc1.O=C(O)C(=O)O | -37
CCC1(c2ccccc2)NC(=O)N(CC(=O)N2CC(=O)Nc3ccccc32)C1=O (centres unmarked) | 7.97
O=S(=O)(c1cc(Cl)ccc1Cl)N1CCc2ccccc21 | -0.504
O=C(c1ccc2c(c1)N(Cc1ccccc1)CCS2)N1CCOCC1 | -29.7
Cc1ccc(C(=O)Nc2ccccc2C(=O)Nc2ccccn2)cc1Cl | 6.44
N#CCP(=S)(c1ccccc1)c1ccccc1 | -2.81
COc1ccc(/C=N/NC(=O)c2ccc(O)cc2)cc1CN1CCCc2ccccc21 | 0.817
O=C(CC(c1ccccc1)c1cc(Cl)ccc1O)NCCCN1CCOCC1 (centres unmarked) | -50
COc1cc(NC(=O)C2CCCCC2)c2ncccc2c1 | -5.19
C=CC[N@@+]12CC[C@]34c5ccccc5N5/C=C6\C7N(/C=C(\C53)[C@@H](C[C@@H]41)/C(=C/CO)C2)c1ccccc1[C@@]71CC[N@@+]2(CC=C)C/C(=C\CO)[C@@H]6C[C@@H]12.[Cl-] (some centres unmarked) | 11.3
CC(C)c1nc2ccccc2n1CC(O)COC1CCCCC1 (centres unmarked) | 7.06
COc1ccccc1-n1c(SCC(=O)Nc2ccc3c(c2)OCO3)nc2c(c1=O)SCC2 | -4.31
